In the CheMixHub viscosity set:

Details: 101 kPa

Which viscosity (293.15 K) does the source give for `CC(O)CO` (stereo not given) here?
The viscosity was 55.9 ± 1.1 mPa·s [study A] and 59.9 ± 0.16 mPa·s [study B] and 49.25 ± 0.27 mPa·s [study C] and 58.75 ± 0.25 mPa·s [study D].

What about the viscosity (298.15 K) of the same molecule?
Its viscosity is 45.33 ± 1 mPa·s [study A] and 41.74 ± 1.3 mPa·s [study B] and 40.09 ± 0.22 mPa·s [study C] and 44.45 ± 0.9 mPa·s [study D] and 43.45 ± 0.24 mPa·s [study E].

And the viscosity (308.15 K)?
The viscosity was 25.14 ± 0.71 mPa·s [study A] and 24.9 ± 0.5 mPa·s [study B] and 26.2 ± 0.62 mPa·s [study C] and 27.25 ± 0.15 mPa·s [study D].

And the viscosity (318.15 K)?
The viscosity was 15.17 ± 0.9 mPa·s [study A] and 14.96 ± 0.43 mPa·s [study B] and 15.4 ± 0.3 mPa·s [study C] and 16.15 ± 0.4 mPa·s [study D] and 17.04 ± 0.097 mPa·s [study E].

For `O=C1CCCC1`, which viscosity (303.15 K) is on record?
Its viscosity is 0.985 ± 0.049 mPa·s [study A] and 0.996 ± 0.037 mPa·s [study B] and 0.989 ± 0.009 mPa·s [study C] and 0.998 ± 0.013 mPa·s [study D] and 0.998 ± 0.013 mPa·s [study E].

± gives the uncertainty stated by the source. A number of entries come with more than one value. They are shown here; other results are not. The source may hold further records. Values that stand side by side are repeats across runs, samples, wells, individuals or studies. What stands in brackets tells the records apart. Letters count within one entry.
